Results on three molecules are retold here after PMC11782079 (2024).

The target of assay [1] is T1, FaRel2-Y128F (catalytically impaired toxSAS toxin) (Coprobacillus sp. D7). The assay can be described thus: ITC; second site (KD2).
For assay [2], the target named is T1, FaRel2-Y128F (catalytically impaired …). Briefly: ITC; first site (KD1). (In general: Isothermal titration calorimetry measures the heat released or taken up as one component is titrated into another.)
Assay [3] shares this target. Briefly: ITC.
For assay [4] the target is unchanged. Briefly: ITC. The source holds these as a separate data set.

Numbering of substitutions follows the chain as printed. In names and notes the source's numbering stands.

B1: ATfaRel2-R47A (natural protein)
chain: GAMCYIIAKRFKKSGCVALKAKRGKELADFATDLQKKLGYDIQIVAITAPTAYGEYEPYKFVNSFEEFSIEASRL
One may read the Kd as the equilibrium constant for the complex coming apart. Read a high Kd as a looser complex. With B1, the Kd was 749 nM in assay [1] and 33 nM in assay [2].

B2: ATfaRel2 F59A (natural protein)
chain: B1 chain with A49R, F61A
Take B2: in assay [3], binding was characterised by a dissociation constant (Kd) of 2100 nM. In other words, the single-digit micromolar range.

B3: ATfaRel2 Y54A (natural protein)
chain: B1 chain with A49R, Y56A
The molecule B3 registered a Kd in assay [4] of 8700 nM.
